Assay results taken from ChEMBL document CHEMBL4888484, “Replenishing the malaria drug discovery pipeline: Screening and hit evaluation of the MMV Hit Generation Library 1 (HGL1) against asexual blood stage Plasmodium falciparum ,using a nano luciferase reporter read-out” (2022).
The whole screen tested about 150,000 compounds, of which about 540 (0.36%) showed an effect of 50% or more. Some of the results follow.

tested on: Plasmodium falciparum; assay: Primary screen in NF54 nanoGlo assay, in single point, at 2uM, 72h; a lower Z score goes with more inhibition; format: functional, Erythrocyte; settings: timepoint 72 hour

SMILES | % Inhibition [%] | Z score
Cc1ccccc1NC(=O)c1cccn1Cc1noc(-c2ccccc2)n1 | 0 | 0.01
Brc1cnn(Cc2cnc(N3CCC[C@H](c4nccs4)C3)s2)c1 | -7 | 1.19
Cn1cc(Cl)c(C(=O)N2C[C@@H]3CC[C@H]2CN(C(=O)c2ccccc2)C3)n1 | 3 | -0.4
O=C(NCCC(F)(F)F)[C@@H]1NCCc2ccccc21 | -1 | 0.2
COc1ccc(Cl)cc1S(=O)(=O)N(CC(=O)N1CCNCC1)C1CCCC1 | 3 | -0.31
CCCCN(CC)S(=O)(=O)c1cc(-c2nnc(C)o2)co1 | -2 | 0.21
Cc1cccc(C)c1C(=O)N1CCN([C@@H]2CCNC(=O)CC2)CC1 | 8 | -1.42
CCO[C@H]1CN(C)C[C@@H]1Nc1cc(C)nc(Nc2cccc(O)c2)n1 | -6 | 1.08
COc1cn(CC(=O)N2CCc3ccccc3C2)c(CO)cc1=O | 6 | -0.99
O=C(c1ccsn1)N1CCC=C(F)C1 | 4 | -0.52
COc1ccc(N2CCN(c3ncccc3-c3nc(C)no3)CC2)cc1 | -3 | 0.47
Cc1ccc2[nH]cc(CCC(=O)N(C)Cc3cnc(C)s3)c2c1 | -7 | 1.02
NC(=O)c1ccc(NCC[C@H]2CCCOC2)nc1 | -2 | 0.35
O=C(NC1CCCCC1)N(C(=O)c1ccc2[nH]c3c(c2c1)CCCC3)C1CCCCC1 | 9 | -1
CCc1cccc(NC(=O)c2c(C)oc3nc(C)nc(N4CCCC4)c23)c1 | -2 | 0.36
Cc1cnc(C2CC2)n1C1CCN(C(=O)N(C)C)CC1 | -4 | 0.53
O=C(NC[C@H]1COCc2nc3ccccc3n21)c1cnccn1 | 3 | -0.58
Cn1cc(C(=O)N2CCO[C@H](c3ccccc3)C2)c2ccccc21 | -22 | 1.91
CCc1ccc(NC(=O)c2scc(-c3cccc(F)c3)c2S(=O)(=O)N(C)c2ccccc2)cc1 | -10 | 1.8
O=S(=O)(Cc1ccc(F)cc1)N1CCC[C@H]1c1ccccc1 | 7 | -1.16
COC(=O)C(C)C(NC(=O)c1oc(C)nc1C)c1ccccc1 (stereo unspecified) | -4 | 0.37
CN(C(=O)Nc1ccc(F)cc1F)c1nc2c(s1)CN(Cc1ccccc1)C2=O | 33 | -3.69

SMILES | % Inhibition [%] | Z score
COCCN1CC[C@H](CN(C)c2ncc(F)c(OC)n2)C1 | -6 | 1.15
CC(C)(C)c1cn(C[C@H]2CCCN(C(=O)C(=O)c3ccco3)C2)nn1 | -1 | 0.1
Cc1noc(C)c1C(=O)NCC1CCN(C(=O)N(C)C)CC1 | 6 | -0.7
Cc1ccccc1[C@@H](O)C1CCN(C(=O)Cc2cncc(O)c2)CC1 | -14 | 1.4
O=C(NCc1cc[nH]n1)NC1C2CCOC2C12CCCC2 (stereo unspecified) | -2 | 0.27
O=C(NC1CCCCC1)N1C[C@@H](CO)C[C@@H](CN2CCOCC2)C1 | -13 | 1.24
O=C(Nc1ccc(Cl)cc1)N1CCC(n2cnc3ccccc3c2=O)CC1 | 3 | -0.29
COc1ccc(S(=O)(=O)N2CCc3nc(CNC(=O)C4CCC4)n(C)c3C2)cc1 | -8 | 0.94
O=C1C[C@H](c2nc(C3CC3)no2)CN1Cc1ccccc1 | 0 | 0
COC(=O)[C@H](NC(=O)Cc1ccn[nH]1)c1ccc(F)cc1F | -17 | 1.54
CC(C)c1ccc(C(=O)O)cc1S(=O)(=O)N(C)CCF | 1 | -0.14
CCCc1nnc(N[C@H]2CCN(C(C)C)C2=O)s1 | -10 | 1.63
CC(C)(C)n1cc(CN2CCOc3cc(F)ccc32)nn1 | -14 | 1.67
O=C(c1nc(N2CCCCC2)ncc1Cl)N1CCN(c2ncccn2)CC1 | -8 | 1.07
O=C([C@@H]1CCCO1)N(Cc1c(F)cccc1F)C1CC1 | -9 | 1.27
C[C@H](NC(=O)CCc1cscn1)c1nc(-c2cccnc2)cs1 | 7 | -1.12
O=C(Cc1ccc(-c2ccccc2)cc1)Nc1ccc2c(c1)OCO2 | -16 | 2.89
Cc1ccc(-c2nccn2CCn2ccnc2)c(C)c1F | -3 | 0.35
COc1ccc(C(=O)NCc2csc(C)n2)o1 | 3 | -0.41
Cc1nc(C(C)(C)NCC(=O)Nc2ccccc2)sc1C | 7 | -0.63
CCn1cc(-c2c(-c3ccccc3)ncn2CCc2nncn2CC)cn1 | 1 | -0.11
